# The full ranking holds about 110,000 compounds; the median of “z-score” is about -0.1, and the highest 2% start at about 2. Some of the results follow. Activity calls are given as the source filed them.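 Rule for the calls: active = z-score in the third read window above 3 or below -3; inactive = the rest.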
# Molecular target: Metabotropic glutamate receptor 8 (Rattus norvegicus) (UniProt P70579)
# Assay: mGluR8 Gi/Go-coupled signaling modulation – cell-based, rat, thallium flux, HTS, primary screen (AID 488969)
# Details: HEK293 rat mGluR8, GIRK (G protein-gated inwardly rectifying potassium channel) thallium flux, FluoZin2; at 10 µM; stronger effect = higher value; submaximal glutamate (EC20) added with thallium
# Sequence of UniProt P70579 (P70579 whole entry, looked up): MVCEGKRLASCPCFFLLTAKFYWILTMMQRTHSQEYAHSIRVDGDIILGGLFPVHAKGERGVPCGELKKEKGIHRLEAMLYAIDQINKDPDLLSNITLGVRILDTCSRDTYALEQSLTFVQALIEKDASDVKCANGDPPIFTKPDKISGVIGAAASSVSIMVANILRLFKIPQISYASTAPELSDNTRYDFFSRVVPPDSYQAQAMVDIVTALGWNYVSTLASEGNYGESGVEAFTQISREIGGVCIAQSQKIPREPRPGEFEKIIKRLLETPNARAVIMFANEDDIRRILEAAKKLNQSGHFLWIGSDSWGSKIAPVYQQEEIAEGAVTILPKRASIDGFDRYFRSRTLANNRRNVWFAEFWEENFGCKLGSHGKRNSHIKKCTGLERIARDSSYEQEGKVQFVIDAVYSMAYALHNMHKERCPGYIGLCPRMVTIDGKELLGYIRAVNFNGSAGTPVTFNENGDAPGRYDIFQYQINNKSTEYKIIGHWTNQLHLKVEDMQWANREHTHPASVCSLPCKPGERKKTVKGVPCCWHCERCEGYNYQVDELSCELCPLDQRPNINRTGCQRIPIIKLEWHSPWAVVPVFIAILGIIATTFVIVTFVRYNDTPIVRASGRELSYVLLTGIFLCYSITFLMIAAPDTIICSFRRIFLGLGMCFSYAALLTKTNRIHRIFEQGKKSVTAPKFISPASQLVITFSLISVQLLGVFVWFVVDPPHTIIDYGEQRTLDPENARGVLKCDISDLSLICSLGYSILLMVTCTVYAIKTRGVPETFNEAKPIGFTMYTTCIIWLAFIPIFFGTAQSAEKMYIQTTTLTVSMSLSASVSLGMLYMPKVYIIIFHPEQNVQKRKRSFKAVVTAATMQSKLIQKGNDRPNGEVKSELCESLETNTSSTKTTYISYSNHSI
row,Structure (SMILES),z-score
1,Cc1nnc(NC(=O)/C=C/c2ccco2)s1,-0.0918
2,Cc1ccc(-c2n[nH]c(=S)n2/N=C\c2ccco2)cc1,-0.16
3,O=C(Cc1cccs1)Nc1nc2c(s1)CCCC2,-0.592
4,COc1ccccc1OCCC(=O)OCC(=O)Nc1ncc(Cl)cc1Cl,0.779
5,Cc1ccc(CN2C(=O)CCC2C(=O)NC2CCCC2)cc1 (stereo not given),-0.0172
6,CCc1cc(C(=O)N=Nc2c(O)[nH]c3c(Br)cc(Br)cc23)c2ccccc2n1,-0.189
7,Cc1ccc(C(=O)Nc2cc(Cl)ccc2Oc2ccccc2)cc1[N+](=O)[O-],-0.324
8,O=C(CN1C(=O)CCS(=O)(=O)c2ccccc21)NCc1ccc(F)cc1,0.806
9,CCOc1ccc(/C(O)=C2/C(=O)C(=O)N(Cc3cccnc3)C2c2ccc(N(C)C)cc2)c(C)c1 (stereo not given),-0.508
10,C=CCN(C#N)c1nc(OC)nc(N2CCCC2)n1,-0.561
11,Nc1nnc(-c2ccccc2)c(-c2ccccc2)n1,-0.237
12,Cc1cccc(C)c1OCc1n[nH]c(=S)o1,-0.0164
13,N/C(Cc1cccc2ccccc12)=N\OC(=O)c1cccs1,-0.626
14,COc1ccc(CC(=O)c2cc(OC)c(OC)cc2CC(=O)O)cc1OC,-0.579
15,O=C(CN1CCOCC1)Nc1ncc(Cc2cccc(Cl)c2)s1,-0.339
16,Cc1cc(C)c(OCCOCCN(C)C)c(Br)c1,-0.584
17,O=C(NCc1ccc(-c2nc3ccccc3s2)cc1)c1cc2ccccc2o1,-0.0663
18,CCCCOC(=O)n1c(=O)oc2ccccc21,-0.0354
19,Cc1cccc(C(=O)Nc2ccccc2SCC2CSc3nc4ccccc4c(=O)n32)c1 (stereo not given),-1.1
20,CN(C)C(=O)c1cc(S(=O)(=O)N(C)C)c(Cl)cc1N1CCCC1,-0.247
21,NC(=O)Cn1c(S(=O)(=O)Cc2ccccc2)nc2ccccc21,0.584
22,CCOC(=O)Cc1csc(NC(=S)NC(=O)c2ccc(Cl)cc2)n1,2.1
23,O=C(C/C=N/OCc1ccc(Cl)cc1Cl)c1ccc(Cl)cc1,0.161

row,Structure (SMILES),z-score
1,Cc1onc(-c2ccccc2)c1C(=O)Nc1nc2c(s1)C(=O)CC(C)(C)C2,-0.00828
2,CCn1c(-c2cc(-c3ccccc3OC)nc3ccccc23)n[nH]c1=S,0.152
3,Cc1ccc(C(=O)CCNc2cccc(Br)c2)o1,-0.445
4,Cc1ccccc1OCC(=O)O/N=C(\N)Cc1ccc(Cl)cc1,-0.483
5,C/C=C/c1ccc(OCCCNC2CCCC2)c(OC)c1,1.24
6,CCOC(=O)CCS(=O)(=O)c1nc(-c2ccccc2)cc(C(F)(F)F)n1,-0.802
7,Nc1nnnn1NCc1cccc(OCc2ccccc2)c1,-0.851
8,Cc1cc(C)c2oc(-c3ccc(C)c(NC(=S)NC(=O)c4cccs4)c3)nc2c1,active: 3.57
9,O=C(Nc1ccccc1C(=O)OCC(=O)c1c[nH]c2ccccc12)c1ccco1,-0.255
10,COc1ccc(CNc2ccc(C(=O)O)cc2)cc1,0.858
11,O=C(O)CCCN1C(=O)/C(=C/c2ccc(-c3nc4ccccc4s3)o2)SC1=S,0.773
12,NC12CCc3c(no[n+]3[O-])C1(O)CC(c1ccccc1)=[N+]2[O-] (stereo not given),-0.35
13,O=c1c2cc(N3CCOCC3)ccc2[nH]c(=S)n1Cc1ccc(Cl)cc1,0.826
14,CC(=O)Nc1nonc1C(=O)N1CCC(C)CC1,-0.119
15,CC(=O)SCC(C)C(=O)NCc1ccccc1 (stereo not given),0.487
16,Cc1cccc(N2CCN(S(=O)(=O)c3ccc(S(=O)(=O)N4CCCC4)cc3)CC2)c1C,-0.533
17,COC(=O)/C(=C/Nc1cccc2ccccc12)[N+](=O)[O-],-0.204
18,CCN(CC)P(=O)(/C(Cl)=C\Nc1c(C)n(C)n(-c2ccccc2)c1=O)N(CC)CC,-0.27
19,COCCCN=C(c1ccco1)n1c(=S)nc(-c2ccco2)n(CCCOC)c1=S,-0.525
20,COc1cc(CCC(=O)OCC(=O)Nc2c(C)cc(C)cc2C)cc(OC)c1OC,-0.204
21,COc1cc(C)c(Cl)cc1S(=O)(=O)NCc1ccco1,0.25
22,CCOc1ccccc1NC(=O)C1C2C=CC(C2)C1C(=O)O (stereo not given),-0.000563
23,Cc1ccc(C)c(N2CCN(C(=O)CN(C)S(=O)(=O)c3ccc4c(c3)CCC(=O)N4)CC2)c1,-0.168

row,Structure (SMILES),z-score
1,COCCn1c(N2CCN(c3ccc(OC)cc3)CC2)nc2c1c(=O)n(C)c(=O)n2C,-0.0614
2,CCOC(=O)Cn1c(=O)n(Cc2ccco2)c(=O)c2ccc(C(=O)NCCc3ccccc3)cc21,-1.79
3,Nc1cc(N)nc(SCC(=O)NCC2CCCO2)n1 (stereo not given),-0.167
4,CCC(O)CNc1nc(SC)nc2sc3c(c12)CCN(C)C3 (stereo not given),-0.691
5,Cc1ccc(Cl)cc1N1CCN(Cc2nc3ccsc3c(=O)[nH]2)CC1,-0.184
6,CCN(CC)CC(O)COc1ccc2c(c1)OCO2 (stereo not given),-0.199
7,CN(C)S(=O)(=O)c1ccc(C(=O)Nc2nnc(SCc3cccc(F)c3)s2)cc1,-0.249
8,O=[N+]([O-])c1ccc(/C=C/c2nc3ccc([N+](=O)[O-])cc3[nH]2)cc1,-0.389
9,Cc1cccc(N2C(=O)CC(N3CCN(c4ccccc4)CC3)C2=O)c1 (stereo not given),-0.369
10,Cc1ccc(NC(=O)CN(c2cc(C)cc(C)c2)S(=O)(=O)c2c(C)noc2C)nc1,-0.225
11,CCn1cc(C(=O)OCC(=O)Nc2ccc(S(=O)(=O)N3CCCC3)cc2)c(=O)c2ccc(C)nc21,-0.0852
12,Cc1ccc(S(=O)(=O)N2C(=O)C(c3ccccc3)SC2=Nc2ccccc2)cc1 (stereo not given),0.00767
13,Cc1nc(-c2ccc3c(c2)OCO3)cs1,0.0239
14,Cc1ccc2c(c1)NC(=O)C(CC(=O)NC1CCCCC1C)O2 (stereo not given),0.0477
15,CCCOc1cc(CN2CCCCC2)cc(C(C)=O)c1,0.184
16,COC(=O)c1ccc(NC(=O)C2C3C=CC(O3)C2C(=O)O)cc1 (stereo not given),-0.438
17,CCOc1cc(C)c(S(=O)(=O)N2CCCC2)cc1C,-0.425
18,CC(=O)Nc1ccc2c(c1)n(C)c(=O)n2C,-0.163
19,C/C(=N\NS(C)(=O)=O)c1ccc(C)cc1,-0.0785
20,COc1ccc(CC(=O)NNc2ncnc3c2cnn3-c2ccc(C)cc2)cc1,-0.0179
21,CCOC(=O)CC(N)c1ccc2c(c1)OCO2 (stereo not given),-0.0325
22,COc1ccc(C2OC(=O)CC2C(=O)NC(C)C)cc1 (stereo not given),-0.591
23,CC1CCCCC1NC(=O)Cn1nnc(-c2ccc(Cl)cc2)n1 (stereo not given),0.119

row,Structure (SMILES),z-score
1,CCC(C)NC(=O)Cn1nc([N+](=O)[O-])c(Cl)c1C (stereo not given),-0.0165
2,Cc1ccc2c(c1)CCCN2C(=O)c1cc2ccccc2oc1=O,0.189
3,COc1ccc(C(=O)CSc2ccc(-c3ccccc3)nn2)cc1,-0.139
4,CC(=O)OC(C(=O)NC1CCCCC1)c1ccc(C)cc1 (stereo not given),-0.0168
5,O=C1CS/C(=C\[N+](=O)[O-])N1c1ccccc1,0.173
6,CCn1c(SCC(=O)Nc2cc(NC(C)=O)ccc2OC)nnc1-c1ccncc1,-0.137
7,CCNC(=O)c1sccc1-n1cccc1,-0.0281
8,COCc1nnc(NC(=O)C(C)C)s1,active: 3.48
9,CC12c3ccccc3C(c3ccccc31)C1C(=O)N(c3cccnc3)C(=O)C12 (stereo not given),-0.314
10,COc1ccc(-n2cnc3cc(NS(=O)(=O)c4ccccc4)ccc32)cc1,-0.404
11,CCOc1ccc2nc(COC(=O)c3ccco3)c(C(C)=O)[n+]([O-])c2c1,0.943
12,CCOc1ccccc1C(=O)Nc1nnc(C(C)C)s1,0.724
13,O=C1c2ccccc2C(=O)N1CCCCn1c(=O)oc2ccccc21,-0.258
14,O=C(Nc1ccc2c3c(cccc13)CC2)c1cccc([N+](=O)[O-])c1,0.00702
15,O=C(NCc1ccccc1Cl)c1cnccn1,0.0726
16,CCOCc1nnc(NC(=O)c2cc(Cl)ccc2OC)s1,-0.179
17,Cc1csc(NC(=O)c2cccs2)n1,0.0104
18,CCCCn1c(CN2C(=O)c3ccccc3C2=O)nc2ccccc2c1=O,0.0111
19,COc1cc([N+](=O)[O-])ccc1NC(=S)NCc1ccccn1,-0.161
20,CCC(=O)Nc1cc2c(cc1C(=O)CC)OCCO2,-0.724
21,COc1cc(C2=NOC(C(=O)N3CCCc4ccccc43)C2)cc(OC)c1OC (stereo not given),0.0774
22,COc1ccc2oc(=O)c(C(=O)N3CCN(c4ccc(F)cc4)CC3)cc2c1,-0.61
23,CCC(=O)N1CCn2c1nc1ccccc12,0.17

row,Structure (SMILES),z-score
1,Cc1ccn(CCSCC(=O)O)n1,0.0165
2,Cn1c(=O)c2c(nc(N3CCNCC3)n2Cc2cccc3ccccc23)n(C)c1=O,-1.19
3,CC(=O)OC1c2ccccc2C(=O)N1Cc1ccccc1Cl (stereo not given),-0.295
4,O=C(Cn1c2ccccc2c(=O)c2ccccc21)Nc1ccccc1F,-0.188
5,Cc1[nH]n(-c2ccccc2)c(=O)c1/C=N/NC(=O)c1cccc([N+](=O)[O-])c1,-0.376
6,Fc1ccc(C2CC(c3cccs3)=NN2C(=S)Nc2ccccc2)cc1 (stereo not given),-0.175
7,CCOCC(=O)N1CCCC(C(=O)OCC)C1 (stereo not given),0.539
8,COCc1cc(=O)[nH]c(Nc2nc(C)c3ccccc3n2)n1,-0.43
9,O=C(Nc1ccccc1C(=O)N1CCOCC1)C1CCCO1 (stereo not given),1.1
10,N=c1c(C(=O)NCc2ccccc2)cc2c(=O)n3ccccc3nc2n1Cc1ccco1,0.0142
11,O=C(Nc1ccc(F)cc1F)c1sccc1SCc1cccc(C(F)(F)F)c1,-0.225
12,CC(C)C1N=C2c3ccccc3N=C(SCC#N)N2C1=O (stereo not given),-0.449
13,CSc1nc(N(C)NC(=O)c2ccc(F)cc2)c2ccccc2n1,-0.000337
14,COc1ccc(CCNC(=O)CSc2nncn2N)cc1OC,0.392
15,CCc1cccc(OCCOCCN2CCCC2)c1,0.338
16,NC(=O)CCn1nc(-c2ccc(Cl)cc2)c2ccccc2c1=O,-0.686
17,N#Cc1c(Nc2ccccc2)sc(C(=O)C2CC2)c1N,-0.0602
18,CCOC(=O)c1c(NCC(C)C)c2ccccc2[nH]c1=O,-0.269
19,FC(F)(F)c1cccc(NC(=S)NCCN2CCOCC2)c1,0.522
20,Cc1cc(C(=O)N2CCN(C(c3ccccc3)c3ccccc3)CC2)on1,0.377
21,O=C1CCCCCC1C1(O)C(=O)Nc2ccccc21 (stereo not given),-0.185
22,COc1cccc(-c2nc(=S)c3c(n2Cc2ccco2)CCCC3)c1,0.708
23,Cc1oc(/C=N/NC(=O)CN(c2ccccc2Cl)S(C)(=O)=O)cc1Br,0.329
